Results published in the supplement of paper PMC4967469.
By IC50 is meant the dose at which the fit gives 50% viability; a fit beyond the top or the lowest dose is shown as a bound at that dose. AUC is the area under the same curve over the 256-fold range up to the top dose, as a fraction; the more sensitive the line, the further below 1. For some assays here: Where the top dose is marked as inferred, it comes from the curve model; the source does not state it.

Key:
Assay in all cases: Viability of human cancer cell lines after 72 h of drug (GDSC screen)
Roscovitine = compound: CC[C@H](CO)Nc1nc(NCc2ccccc2)c2ncn(C(C)C)c2n1 [Roscovitine]; conditions: top dose 16 µM; top dose inferred
Protocol: (§1)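 Human cancer cell lines in 384-well plates, medium with 10% serum, drug for 72 h over a 256-fold dose range (nine 2-fold or five 4-fold steps up to the top dose). Adherent lines were fixed and stained with the nucleic acid dye Syto60, suspension lines read with resazurin; signal relative to control wells, capped at 0 and 100%. One two-parameter sigmoid per drug and line, fitted in a mixed model over all curves with the slope shared within a line.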

Midostaurin = compound: CO[C@@H]1[C@H](N(C)C(=O)c2ccccc2)C[C@H]2O[C@]1(C)n1c3ccccc3c3c4c(c5c6ccccc6n2c5c31)C(=O)NC4 [Midostaurin]; conditions: top dose 0.512 µM; top dose inferred
Protocol: as §1

Mitomycin C = compound: CO[C@@]12[C@H](COC(N)=O)C3=C(C(=O)C(C)=C(N)C3=O)N1C[C@@H]1N[C@@H]12 [Mitomycin C]; conditions: top dose 16 µM
Protocol: as §1

Bosutinib = compound: COc1cc(Nc2c(C#N)cnc3cc(OCCCN4CCN(C)CC4)c(OC)cc23)c(Cl)cc1Cl [Bosutinib]; conditions: top dose 2 µM
Protocol: as §1

NVP-BHG712 = compound: Cc1ccc(C(=O)Nc2cccc(C(F)(F)F)c2)cc1Nc1nc(-c2cccnc2)nc2c1cnn2C [NVP-BHG712]; conditions: top dose 10.24 µM; top dose inferred
Protocol: as §1

IOX2 = compound: O=C(O)CNC(=O)c1c(O)c2ccccc2n(Cc2ccccc2)c1=O [IOX2]; conditions: top dose 0.1 µM; top dose inferred
Protocol: as §1

| Cell Line | AUC (Roscovitine) | IC50 (Roscovitine) [nM] | AUC (Midostaurin) | IC50 (Midostaurin) [nM] | AUC (Mitomycin C) | IC50 (Mitomycin C) [nM] | AUC (Bosutinib) | IC50 (Bosutinib) [nM] | AUC (NVP-BHG712) | IC50 (NVP-BHG712) [nM] | AUC (IOX2) | IC50 (IOX2) [nM] |
| --- | --- | --- | --- | --- | --- | --- | --- | --- | --- | --- | --- | --- |
| L-428 (Hodgkin lymphoma, suspension) | 0.984 | > 16000 | 0.972 | > 512 | 0.544 | 1300 | 0.954 | > 2000 | 0.993 | > 10200 | 0.987 | > 100 |
| L-540 (Hodgkin lymphoma, suspension) | 0.955 | > 16000 | 0.867 | 377 | 0.207 | 155 | 0.84 | 1160 | 0.931 | > 10200 | 0.982 | > 100 |
| L-1236 (Hodgkin lymphoma, suspension) | 0.939 | > 16000 | 0.988 | > 512 | 0.619 | 2010 | 0.927 | > 2000 | 0.964 | > 10200 | 0.992 | > 100 |
| LAMA-84 (chronic myeloid leukaemia, suspension) | 0.985 | > 16000 | 0.949 | > 512 | 0.436 | 667 | 0.574 | 200 | 0.069 | < 40 | 0.985 | > 100 |
| LAN-6 (neuroblastoma, adherent) | 0.96 | > 16000 | 0.985 | > 512 | 0.368 | 403 | 0.985 | > 2000 | 0.937 | > 10200 | 0.983 | > 100 |
| LB373-MEL-D (melanoma, adherent) | 0.977 | > 16000 | 0.984 | > 512 | 0.348 | 382 | 0.99 | > 2000 | 0.956 | > 10200 | 0.977 | > 100 |
| LB771-HNC (head and neck, adherent) | 0.903 | > 16000 | 0.952 | > 512 | 0.454 | 724 | 0.725 | 652 | 0.951 | > 10200 | 0.963 | > 100 |
| LB1047-RCC (kidney, adherent) | 0.934 | > 16000 | 0.722 | 149 | 0.101 | < 62.5 | 0.814 | 1270 | 0.864 | > 10200 | 0.957 | > 100 |
| LB2241-RCC (kidney, adherent) | 0.911 | > 16000 | 0.878 | > 512 | 0.195 | 108 | 0.716 | 555 | 0.923 | > 10200 | 0.981 | > 100 |
| LB2518-MEL (melanoma, adherent) | 0.941 | > 16000 | 0.931 | > 512 | 0.413 | 571 | 0.976 | > 2000 | 0.773 | 4200 | 0.976 | > 100 |
| LC4-1 (lymphoblastic leukaemia, suspension) | 0.917 | > 16000 | 0.938 | > 512 | 0.504 | 1030 | 0.971 | > 2000 | 0.867 | > 10200 | 0.983 | > 100 |
| LOUCY (T-cell lymphoblastic leukaemia, suspension) | 0.863 | 9880 | 0.927 | > 512 | 0.08 | < 62.5 | 0.979 | > 2000 | 0.968 | > 10200 | 0.99 | > 100 |
| LS-123 (large intestine, adherent) | 0.945 | > 16000 | 0.911 | > 512 | 0.559 | 1530 | 0.982 | > 2000 | 0.956 | > 10200 | 0.975 | > 100 |
| LS-411N (large intestine, adherent) | 0.921 | > 16000 | 0.923 | > 512 | 0.346 | 339 | 0.969 | > 2000 | 0.815 | 7270 | 0.978 | > 100 |
| LS-513 (large intestine, adherent) | 0.867 | 15400 | 0.983 | > 512 | 0.507 | 1040 | 0.956 | > 2000 | 0.666 | 1890 | 0.986 | > 100 |
| LU-65 (large cell lung carcinoma, suspension) | 0.958 | > 16000 | 0.975 | > 512 | 0.533 | 1250 | 0.987 | > 2000 | 0.91 | > 10200 | 0.985 | > 100 |
| LU-134-A (small cell lung carcinoma, suspension) | 0.959 | > 16000 | 0.925 | > 512 | 0.173 | 93.7 | 0.983 | > 2000 | 0.958 | > 10200 | 0.982 | > 100 |
| LU-139 (small cell lung carcinoma, suspension) | 0.921 | > 16000 | 0.967 | > 512 | 0.516 | 1120 | 0.918 | > 2000 | 0.894 | > 10200 | 0.974 | > 100 |
| LU-165 (small cell lung carcinoma, suspension) | 0.981 | > 16000 | 0.97 | > 512 | 0.416 | 570 | 0.988 | > 2000 | 0.958 | > 10200 | 0.986 | > 100 |
| LXF-289 (lung adenocarcinoma, adherent) | 0.943 | > 16000 | 0.766 | 186 | 0.126 | 66.3 | 0.88 | > 2000 | 0.94 | > 10200 | 0.985 | > 100 |
| MC116 (B-cell lymphoma, suspension) | 0.913 | 10300 | 0.968 | > 512 | 0.569 | 1470 | 0.999 | > 2000 | 0.897 | 5970 | 0.999 | > 100 |

| Cell Line | AUC (Roscovitine) | IC50 (Roscovitine) [nM] | AUC (Midostaurin) | IC50 (Midostaurin) [nM] | AUC (Mitomycin C) | IC50 (Mitomycin C) [nM] | AUC (Bosutinib) | IC50 (Bosutinib) [nM] | AUC (NVP-BHG712) | IC50 (NVP-BHG712) [nM] | AUC (IOX2) | IC50 (IOX2) [nM] |
| --- | --- | --- | --- | --- | --- | --- | --- | --- | --- | --- | --- | --- |
| MC-CAR (haematopoietic neoplasm, suspension) | 0.955 | > 16000 | 0.963 | > 512 | 0.244 | 202 | 0.883 | 1740 | 0.675 | 1850 | 0.988 | > 100 |
| MDST8 (large intestine, adherent) | 0.956 | > 16000 | 0.966 | > 512 | 0.627 | 2240 | 0.885 | > 2000 | 0.784 | 4310 | 0.977 | > 100 |
| ME-1 (acute myeloid leukaemia, suspension) | 0.989 | > 16000 | 0.988 | > 512 | 0.672 | 3130 | 0.959 | > 2000 | 0.605 | 1270 | 0.988 | > 100 |
| MEG-01 (chronic myeloid leukaemia, suspension) | 0.842 | 10200 | 0.908 | > 512 | 0.456 | 764 | 0.548 | 167 | 0.079 | < 40 | 0.984 | > 100 |
| MFH-ino (soft tissue, adherent) | 0.929 | > 16000 | 0.759 | 208 | 0.177 | 85.5 | 0.856 | > 2000 | 0.946 | > 10200 | 0.916 | > 100 |
| MFM-223 (breast, adherent) | 0.987 | > 16000 | 0.989 | > 512 | 0.699 | 3590 | 0.955 | > 2000 | 0.945 | > 10200 | 0.988 | > 100 |
| MHH-PREB-1 (B-cell leukaemia, suspension) | 0.919 | > 16000 | 0.96 | > 512 | 0.656 | 2570 | 0.965 | > 2000 | 0.651 | 1590 | 0.988 | > 100 |
| ML-2 (acute myeloid leukaemia, suspension) | 0.955 | > 16000 | 0.888 | 466 | 0.073 | < 62.5 | 0.986 | > 2000 | 0.733 | 2700 | 0.989 | > 100 |
| MLMA (hairy cell leukaemia, semi-adherent) | 0.937 | > 16000 | 0.961 | > 512 | 0.54 | 1290 | 0.784 | 854 | 0.485 | 581 | 0.98 | > 100 |
| MMAC-SF (melanoma, adherent) | 0.972 | > 16000 | 0.958 | > 512 | 0.497 | 980 | 0.953 | > 2000 | 0.986 | > 10200 | 0.986 | > 100 |
| MN-60 (B-cell leukaemia, suspension) | 0.964 | > 16000 | 0.931 | > 512 | 0.537 | – | 0.982 | > 2000 | 0.922 | > 10200 | 0.986 | > 100 |
| MOLP-8 (myeloma, suspension) | 0.767 | 5730 | 0.715 | 126 | 0.306 | 293 | 0.949 | > 2000 | 0.609 | 1260 | 0.985 | > 100 |
| MONO-MAC-6 (acute myeloid leukaemia, suspension) | 0.905 | > 16000 | 0.675 | 102 | 0.212 | 134 | 0.784 | 902 | 0.901 | > 10200 | 0.981 | > 100 |
| MPP-89 (mesothelioma, adherent) | 0.924 | > 16000 | 0.84 | > 512 | 0.482 | 878 | 0.967 | > 2000 | 0.948 | > 10200 | 0.977 | > 100 |
| MRK-nu-1 (breast, suspension) | 0.81 | 7590 | 0.871 | 414 | 0.194 | 136 | 0.989 | > 2000 | 0.899 | > 10200 | 0.989 | > 100 |
| MS-1 (small cell lung carcinoma, suspension) | 0.936 | > 16000 | 0.969 | > 512 | 0.46 | 786 | 0.991 | > 2000 | 0.942 | > 10200 | 0.991 | > 100 |
| MSTO-211H (mesothelioma, adherent) | 0.989 | > 16000 | 0.991 | > 512 | 0.658 | 2620 | 0.855 | 1360 | 0.991 | > 10200 | 0.951 | > 100 |
| MZ1-PC (pancreas, adherent) | 0.977 | > 16000 | 0.786 | 281 | 0.383 | 441 | 0.981 | > 2000 | 0.601 | 1300 | 0.977 | > 100 |
| MZ2-MEL (melanoma, adherent) | 0.972 | > 16000 | 0.941 | > 512 | 0.374 | 423 | 0.75 | 756 | 0.667 | 2040 | 0.946 | > 100 |
| Mo-T (hairy cell leukaemia, suspension) | 0.983 | > 16000 | 0.987 | > 512 | 0.755 | 5530 | 0.902 | > 2000 | 0.973 | > 10200 | 0.984 | > 100 |
| NALM-6 (B-cell leukaemia, suspension) | 0.933 | > 16000 | 0.714 | 114 | 0.039 | < 62.5 | 0.933 | > 2000 | 0.615 | 1250 | 0.989 | > 100 |
